From PubChem BioAssay AID2750 (The Scripps Research Institute Molecular Screening Center, 2010)
A number of entries come with more than one value. The other results are left out here. The source may hold further records. The values listed for one entry repeat one measurement across runs, samples, wells, individuals or studies. What stands in brackets tells the records apart. Letters count within one entry.

System: DLD-1 KLF5 promoter-luciferase reporter, luminescence
Test: KLF5 promoter reporter inhibitors, late-stage follow-up, luminescence, DLD-1 cells, powder samples (AID 2750)

SMILES: COC(=O)c1ccc2nc(Nc3nc4ccc(F)cc4s3)sc2c1
- IC50: 357 nM [sample A] and 20.5 nM [sample B]
